From publication PMC4336329 (PLoS ONE, 2015)
In all, about 310,000 compounds went through this assay and about 2,200 (0.71%) showed an effect of 50% or more. Effects have a minus sign here. The list shows a part of the results.

target: human ether-à-go-go-related gene (hERG) potassium channel (human, UniProt Q12809); assay: primary screen, population patch clamp on CHO cells stably expressing hERG
Sequence (Q12809 whole entry, looked up): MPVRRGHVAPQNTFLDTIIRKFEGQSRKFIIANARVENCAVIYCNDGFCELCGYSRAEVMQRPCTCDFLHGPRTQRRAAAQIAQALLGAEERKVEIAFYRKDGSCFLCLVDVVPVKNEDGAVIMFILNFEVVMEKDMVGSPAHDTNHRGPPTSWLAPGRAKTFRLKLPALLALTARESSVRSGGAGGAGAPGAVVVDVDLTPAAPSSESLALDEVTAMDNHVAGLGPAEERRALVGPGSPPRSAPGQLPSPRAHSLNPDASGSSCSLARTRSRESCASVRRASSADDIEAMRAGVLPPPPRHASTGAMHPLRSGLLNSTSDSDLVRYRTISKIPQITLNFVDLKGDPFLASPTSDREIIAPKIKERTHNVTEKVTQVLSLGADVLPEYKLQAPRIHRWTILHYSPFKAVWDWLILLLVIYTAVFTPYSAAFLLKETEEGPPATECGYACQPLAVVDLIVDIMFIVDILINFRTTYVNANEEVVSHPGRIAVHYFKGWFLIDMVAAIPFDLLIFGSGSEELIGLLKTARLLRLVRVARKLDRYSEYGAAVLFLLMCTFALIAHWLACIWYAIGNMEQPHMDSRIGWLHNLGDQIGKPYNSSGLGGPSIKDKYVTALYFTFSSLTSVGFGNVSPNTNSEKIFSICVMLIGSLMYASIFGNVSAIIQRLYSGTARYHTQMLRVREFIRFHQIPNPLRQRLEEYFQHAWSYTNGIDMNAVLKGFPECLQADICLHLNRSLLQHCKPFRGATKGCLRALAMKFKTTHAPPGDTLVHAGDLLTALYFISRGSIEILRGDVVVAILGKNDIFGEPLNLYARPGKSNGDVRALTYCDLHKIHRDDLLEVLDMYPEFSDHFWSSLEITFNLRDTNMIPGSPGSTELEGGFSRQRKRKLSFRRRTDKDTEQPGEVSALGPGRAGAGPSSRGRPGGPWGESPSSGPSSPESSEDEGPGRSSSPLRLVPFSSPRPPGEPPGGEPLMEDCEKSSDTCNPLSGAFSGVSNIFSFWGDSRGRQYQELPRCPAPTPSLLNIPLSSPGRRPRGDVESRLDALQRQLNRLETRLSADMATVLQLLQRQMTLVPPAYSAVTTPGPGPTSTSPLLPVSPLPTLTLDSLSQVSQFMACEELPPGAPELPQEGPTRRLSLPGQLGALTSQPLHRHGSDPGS

Structure (SMILES)	hERG current change (%, negative = inhibition) at 1uM [%]
O=C(NCC1CCCO1)C1CCN(C2CCN(C(=O)C3CCCCC3)CC2)CC1 (centres unmarked)	16
Cc1cccc(OCC(=O)Nc2cc(S(=O)(=O)N3CCOCC3)ccc2N2CCCC2)c1C	22.3
Fc1ccc(CN2CCCN(C(=S)Nc3ccc(F)cc3)CC2)cc1	2.05
CCOc1ccc(NC(=O)CN(C)S(=O)(=O)c2cccs2)cc1	8.98
COc1ccc(C2OC(=O)CC2C(=O)NCc2ccc(Cl)cc2)cc1OC (centres unmarked)	6.73
Cc1nc(NCc2ccc(S(N)(=O)=O)cc2)c2c(C)c(C)sc2n1	-1.15
COc1ccc(NC(=O)CSc2nc(N)cc(N)n2)cc1S(=O)(=O)N1CCCCC1	10.4
COc1cc2c(cc1OC)CN(C(=O)CN1C(=O)NC3(CCC(C)CC3)C1=O)CC2 (centres unmarked)	14.9
Cc1cc(C)c2c(N)c(C(=O)NNC(=O)c3ccccc3)sc2n1	12.8
Fc1ccccc1Cn1cc(C(=S)N2CCOCC2)c2ccccc21	12
O=c1cc(CO)oc(C(Nc2ccccn2)c2ccsc2)c1O (centres unmarked)	12.4
O=C(N/N=C/c1cccs1)c1n[nH]c2c1CCC2	20.1
COc1ccc(Cl)cc1NC(=O)c1oc(C)nc1C	-1.29
C=C(c1ccccc1Cl)[n+]1ccccc1.F[B-](F)(F)F	17.5
C=CCNc1sc(C(=O)c2ccccc2)c(N)c1C#N	9.87
COc1ccc(CCNc2nc(=S)[nH]c3cc(OC)c(OC)cc23)cc1OC	9.76
O=C(O)CCSc1nnc(-c2cccnc2)n1-c1ccccc1	10.5
O=C1CN(C(=O)CC2c3ccccc3-c3ccccc32)CC(=O)N1	5.63
O=c1c(Oc2ccccc2F)coc2cc(OCc3cnn(-c4ccccc4)c3)ccc12	-6.87
O=C(NCC1CCCCC1)c1cc2ccccc2cc1O	-0.818
Cc1cccc(Sc2c([N+](=O)[O-])ncn2C)n1	4.24
COC(=O)c1ccc(NC(=O)CCN2C(=O)CSC2=O)cc1	8.21
CCc1ccc(OCCNC(=O)c2ccccc2SCc2ccccc2)cc1	6.16

Structure (SMILES)	hERG current change (%, negative = inhibition) at 1uM [%]
CCC(C)(C)n1nnnc1C(c1cc2cc(C)ccc2[nH]c1=O)N1CCCc2ccccc21 (centres unmarked)	0.711
NC1=C(c2ccc(F)cc2)C(=O)CS1	14.8
Cc1ccc(NC(=O)c2ccc([N+](=O)[O-])cc2)cc1S(=O)(=O)N(C)C	0.664
COc1ccc(C(=O)c2c3ccccc3[n+]([O-])n2CCC(N)=O)cc1	19.5
COc1ccc(NC(=O)Cn2c(=O)n(CC3CCCO3)c(=O)c3cc(OC)c(OC)cc32)cc1OC (centres unmarked)	6.77
O=C(O)C(C(=O)/C=C/c1ccco1)=C1SCCS1	5.17
CCCCCC1CC(/C(C)=N/NC(N)=O)OC1=O (centres unmarked)	-0.329
CC1Cc2ccccc2N1C(=O)CCS(=O)(=O)c1cccc2nonc12 (centres unmarked)	6.5
COc1ccc(N(C(=O)c2ccco2)C(C(=O)NC2CCCC2)c2ccc(N(C)C)cc2)cc1OC (centres unmarked)	13.8
COc1cccc(CC2(CO)CCCN(Cc3cn[nH]c3C3CCCCC3)C2)c1 (centres unmarked)	5.05
Cc1cc(OCC(=O)NCC(c2ccc(F)cc2)N2CCOCC2)ccc1Cl (centres unmarked)	-9.6
CCCC(=O)N(CCN1CCOCC1)c1nc2c(F)cc(F)cc2s1.Cl	4.18
CCn1c(SCC(=O)NC2CCCCC2)nnc1-c1ccccc1F	15.1
O=S1(=O)CCOCCCN1Cc1ccccc1F	14.1
O=C1CC(c2ccco2)Sc2ccccc2N1 (centres unmarked)	10
COC(=O)c1ccccc1NC(=O)c1cc(-c2ccc(C)cc2)on1	-16
Cc1ccc(-n2nnc(-c3cnc4ccccc4c3)n2)cc1	17.2
CN=C1c2cc3cc(OC)ccc3n2CCN1C.Cl	-22.2
COC(=O)C1CCN(C(=O)CSc2nc3ccc(OC)cc3[nH]2)CC1	0.401
CCCS(=O)(=O)c1c(S(=O)(=O)CCC)c2ccc(C(N)=O)cn2c1C(=O)c1ccc(OC)cc1	9.09
Nc1c(C(=O)NCc2ccc3c(c2)OCO3)nnn1CC(=O)Nc1ccc(Br)cc1	13.4
NS(=O)(=O)c1ccc(CCNC(=O)CCC(=O)c2cccs2)cc1	3.27
COc1ccc(NC(=O)c2cnc(NS(=O)(=O)c3ccccc3)nc2)cc1	8.41

Structure (SMILES)	hERG current change (%, negative = inhibition) at 1uM [%]
COc1ccccc1/C=N/NC(=O)NC12CC3CC(CC(C3)C1)C2	15.2
O=C(N/N=C1/C(=O)c2cccc3cccc1c23)c1ccc(Cl)cc1	17.7
CCc1cc(=O)oc2cc(OCC(=O)N3CCC[C@H]3C(=O)O)ccc12	8.19
Cl.Oc1ccc(CNC2CCCCC2)cc1	-0.777
COC(=O)Cc1nc2ccccc2[nH]1.Cl	14.7
COc1ccccc1-n1cnnc1SCC(=O)NCc1cccs1	6.63
COc1cccc(NC(=O)CN2C(=O)NC(C)(CCC(C)C)C2=O)c1 (centres unmarked)	8.31
COC(=O)c1ccc(Cn2nc(C)c(Cl)c2C)o1	18
Br.COc1ccccc1OCC(=O)NN1Cc2ccccc2C1=N	11.2
Cc1cc(NCc2ccco2)nc2cc(O)ccc12	-1.42
CCCCCC(=O)Nc1ccc(S(=O)(=O)Nc2nccnc2OC)cc1	1.19
CC1=CC(=C(C#N)c2nc3ccccc3s2)C=C(C)N1Cc1ccco1	3.93
COc1cccc(C(=O)Nc2ccc(C(=O)c3ccncc3)cc2)c1	0.376
CC(C)CC(c1nnnn1Cc1ccccc1)N1CCN(C(=O)c2ccco2)CC1 (centres unmarked)	-11.2
CCCCN(C(=O)c1cc2ccccc2o1)c1c(N)n(CC(C)C)c(=O)[nH]c1=O	6.09
O=C(NC1CCCC1)C(c1ccc(N2CCOCC2)cc1)N(C(=O)c1ccco1)c1ccccc1F (centres unmarked)	15.4
CCCNC(=O)c1cc(OC)c(OC)cc1[N+](=O)[O-]	0.889
CCSc1nnc(NC(=O)[C@H](C)N2C(=O)C3CC=CCC3C2=O)s1 (some centres unmarked)	8.93
CC1Cc2nc(SCC(=O)Nc3ccc4c(c3)OCO4)n(-c3ccc(F)cc3)c(=O)c2S1 (centres unmarked)	4.81
Cc1nnc(SCC(=O)N2CCC(Cc3ccccc3)CC2)n(N)c1=O	-1.97
Cc1c(C(=O)N2CCC3(CC2)OCCO3)sc2ncnc(N(C)c3ccccc3)c12	-1.12
CCc1cc2c(=O)c(-c3nc(C)cs3)coc2cc1OC(C)C(=O)NCCO (centres unmarked)	5.41
Cc1nnc(SCC(=O)Nc2cc(Cl)ccc2Cl)n1CC1CCCO1 (centres unmarked)	4.35

Structure (SMILES)	hERG current change (%, negative = inhibition) at 1uM [%]
CN(C)S(=O)(=O)c1ccc(Cl)c(NC(=O)C2CCN(S(=O)(=O)c3cccs3)CC2)c1	8.6
COc1ccc(CNC(=O)N2CCN(S(=O)(=O)c3ccc(C)cc3C)CC2)cc1	11
Cc1ccc(-c2csc3ncn(C(C)C(=O)O)c(=O)c23)cc1 (centres unmarked)	9.07
COC(=O)c1sc(NC(=O)CSc2nnnn2-c2ccc(C)cc2C)nc1C	10.6
CN(Cc1nc2ccccc2c(=O)[nH]1)C(=O)c1ccc(S(=O)(=O)N(C)C)cc1	3.22
CC12COC3(C(=O)Nc4ccc([N+](=O)[O-])cc4)CC1CCC32C (centres unmarked)	0.546
COc1cc(OC)cc(-n2nnnc2SCC(=O)Nc2ccc(C(C)=O)cc2)c1	10.2
COc1ccc(CCN(Cc2ccccn2)C(=S)Nc2cccc(C)c2)cc1OC	1.45
Cc1cc(CNC(=O)C2CCC(=O)N(CCc3ccc(Cl)cc3)C2)no1 (centres unmarked)	-13.8
O=C(COc1ccc(Br)cc1Cl)c1ccc[nH]1	8.4
NP(=O)(Oc1ccc(Cl)cc1)Oc1ccc(Cl)cc1	2.75
COC(=O)c1ccccc1NS(=O)(=O)c1ccc2c(c1)oc(=O)n2C	11.3
CC(C)N(C(=O)CSc1nnc(CNc2ccc(F)cc2)o1)C(C)C	3.36
O=C(NC1CCCC1)C(c1cccnc1)N(C(=O)c1csnn1)C1CC1 (centres unmarked)	3.78
Cn1ncc2c1ncn1nc(COc3ccc4ccccc4c3)nc21	7.58
Cn1c(C(=O)N[C@@H](C(=O)O)c2ccccc2)cc2cc(Cl)ccc21	17.7
COc1ccccc1C(CNC(=O)c1cccc(NS(=O)(=O)c2ccc(C)c(F)c2)c1)N(C)C (centres unmarked)	-13.9
CCOC(=O)Cn1c(=NC(=O)c2nc3ccccc3s2)sc2cc(S(N)(=O)=O)ccc21	11.6
COc1ccc(/C=N/N=C2/SCC(=O)N2Cc2ccccc2)cc1	7.86
Cc1sc2c(c1C)c(=O)n(-c1ccccc1)c(=O)n2CC(=O)NCC1CCCO1 (centres unmarked)	10.7
